Screen size: about 410,000 compounds; about 7,200 (1.8%) were called active. This list was built around the results that the source calls inconclusive (neither active nor inactive); the mix of calls is not that of the screen. The call rests on the fitted dose curve; in most records, active means well fitted activation curve with a large enough effect; inconclusive means small, poorly fitted or top-dose-only effect, or another doubt; inactive means no such curve, though single readings can be large or run the other way. No potency is given beside an inconclusive call; the fits are too rough.
experiment: qHTS of TDP-43 Inhibitors; conditions: TDP-43 expressing yeast growth rescue, BacTiter-Glo, 24 h; growth rescue (activation): at 46.1 µM (top of the series) unless noted; further: nearly all actives have a fitted effect of over 50% in size; on growth rescue (activation): % of control where 0% means no effect
In short: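 Yeast expressing TDP-43 (pregrown in raffinose, seeded at OD600=0.02 in galactose medium) exposed to compounds 24 hr at 30 deg C. Growth read by BacTiter-Glo luminescence; rescue of toxicity appears as increased signal.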
Potency means the concentration at half of the fitted maximal effect; tags describe the fitted curve by direction and shape.

Structure (SMILES)	Potency	growth rescue (activation)
COc1ccc(NC(=O)CCSc2cc(C)c3ccccc3n2)cc1	inconclusive [activator, partial curve, poor fit]	–
Cc1cc(C(=O)NC2CCCc3ccccc32)c(C)o1 (configuration not stated)	inconclusive [activator, single point]	–
CC1CCCC(NC(=O)COC(=O)c2ccc3c(c2)OCCO3)C1C (configuration not stated)	inconclusive [activator, partial curve]	–
C(=C/c1nccc2c1[nH]c1ccccc12)/c1ccc2c(c1)OCO2	active: 10 µM	–
O=C(CSc1nc2ccccc2c(=O)[nH]1)N1CCN(S(=O)(=O)c2ccccc2)CC1	inactive	–
Cc1cccc(NC(=O)/C(C#N)=C/c2ccco2)c1	inconclusive [activator, partial curve]	–
O=C1[C@@H]2C(c3cccnc3)=NO[C@@H]2C(=O)N1c1ccc(Cl)cc1Cl	active: 35.5 µM	–
Cc1ccc(S(=O)(=O)N2CCC(=O)N(C(COCc3ccc(Cl)cc3)C(C)C)CC2)cc1 (configuration not stated)	inconclusive [activator, single point]	–
COc1ccc(C(=O)Nc2ccnn2C2CCN(CC3CC=CCC3)CC2)cc1 (configuration not stated)	inactive	–
Cc1cc(/C=N/n2cnnc2)c(C)n1-c1ccc(OCc2ccc(F)cc2)cc1	inconclusive [activator, single point]	–
O=C(Cc1ccccc1[N+](=O)[O-])NCc1ccc(Cl)cc1Cl	inactive	–
COC(=O)c1ccccc1NC(=O)CCC(=O)N1CC(C)Oc2ccc(C)cc21 (configuration not stated)	active: 17.8 µM	–
O=C(Nc1cccc(Cl)c1)C1CCCCC1	inconclusive [activator, partial curve]	–
COC(=O)[C@H](C)NC(=O)Nc1cccc(C)c1	inconclusive [activator, full curve, poor fit]	–
CC(=O)c1ccc(NC(=O)c2nc(-c3ccccc3)n(-c3ccc(C)cc3)n2)cc1	active: 17.8 µM	–
Fc1ccc(-c2cc(C(F)(F)F)nc(-n3cccn3)n2)cc1	inconclusive [activator, single point]	–
COC(=O)c1cc(-c2cccc(OC)c2)on1	inconclusive [activator, partial curve]	–
COc1ccc(/C=C(\C#N)C(=O)NC(C)c2ccccc2)cc1O (configuration not stated)	active: 20 µM	–
O=C1C=C(c2cc3ccccc3s2)C[C@@H](c2ccc3c(c2)OCO3)C1	inactive	–
O=C(N/N=C1\C2CN3CCN(C2)CC1(c1ccccc1)C3)Nc1ccccc1	inactive	–
CCOC(=O)c1cnc2ccc(OCC)cc2c1N1CCN(c2ccccc2)CC1	active: 17.8 µM	–
COc1ccc([C@H]2CC(=O)C=C(c3ccccc3)C2)cc1OC	inconclusive [activator, single point]	–
CC(C)c1ccc(Nc2nc(CC(=O)O)cs2)cc1	inconclusive [activator, single point]	–
COc1ccc(N2CCN(C(=O)c3cnc(N4CCOCC4)c4ccccc34)CC2)cc1	inconclusive [activator, partial curve]	–

Structure (SMILES)	Potency	growth rescue (activation)
Cc1ccccc1/C=C1\C(=O)Nc2ccc(F)cc21	–	inconclusive: 30.3% [activator]
C=C(C)Cn1c(N2CCN(c3ccc(OC)cc3)CC2)nc2c1c(=O)n(C)c(=O)n2C	inconclusive [activator, partial curve]	–
CCOc1ccccc1Oc1ncnc2c1oc1ccccc12	inconclusive [activator, partial curve]	–
COc1ccccc1Cc1c(C(C)(C)C)nc2cc(C)c(Br)c(C)n12	inconclusive [activator, partial curve]	–
Cc1c(Cl)cccc1NC(=S)NCc1ccccc1Cl	inconclusive [activator, single point]	–
CCOc1cc(S(=O)(=O)NC2CCCC2)ccc1Cl	active: 20 µM	–
CC(C)COc1cc(=O)[nH]c(SCC(C)C)n1	inconclusive [activator, single point]	–
CC(C)Cc1nnc(NC(=O)CSc2nc(=O)cc(N)n2-c2ccccc2)s1	inactive	–
COc1ccc(/C=C2\SC(=S)N(CCC(=O)NCCCn3ccnc3)C2=O)cc1	inactive	–
CCCCCCN[C@H]1CCC2C3CC=C4C[C@@H](O)CC[C@]4(C)C3CC[C@@]21C (some centres not stated)	inconclusive [activator, partial curve]	–
COc1ccccc1OCC(=O)Nc1ncc(C)s1	inconclusive [activator, partial curve]	–
C=CC1(C)CN(Cc2ccco2)S(=O)(=O)c2c(F)cccc2O1 (configuration not stated)	inconclusive [activator, partial curve]	–
CC(C)(C)c1csc(NC(=O)CCc2ccccc2)n1	inconclusive [activator, single point]	–
CCOc1ncccc1C(=O)Nc1ccc(Cl)cc1	active: 11.2 µM	–
O=C(OCC(=O)N(Cc1ccccc1)Cc1ccccc1)c1ccccc1NCCO	inconclusive [activator, single point]	–
COc1ccc(OC)c(C(=O)c2ccc([N+](=O)[O-])cc2)c1	inactive	–
CCc1ccc(CNC(=O)c2ccc(NC(=O)C3=CSCCO3)cc2)cc1	inconclusive [activator, full curve, poor fit]	–
Cc1cc2nc(-c3ccco3)c(Cc3ccccc3C(F)(F)F)n2c(C)c1Br	inconclusive [activator, single point]	–
CCc1ccc(-c2nnn(Cc3nc4ccccc4s3)n2)cc1	inconclusive [activator, partial curve, poor fit]	–
CCCc1nc2oc(C(=O)OCC)c(N)c2c2c1COC(C)(C)C2	inconclusive [activator, partial curve]	–
Cc1nc2ccc(NS(=O)(=O)c3c(F)cc(F)cc3Br)cc2s1	active: 15.8 µM	–
CCc1cccc(NC(=O)C2CCCN2S(=O)(=O)c2ccc3nc(-c4ccccc4)[nH]c3c2)c1 (configuration not stated)	inconclusive [activator, partial curve]	–
COc1ccc(N2CCN(CC(=O)Nc3nc4c(s3)CC(C)CC4)CC2)cc1 (configuration not stated)	inconclusive [activator, partial curve]	–
Cc1cc2c(cc1C)N(C(=O)CCl)CCN2C(=O)CCl	inconclusive [activator, single point]	–

Structure (SMILES)	Potency	growth rescue (activation)
NNC(=O)C=C1CCN(c2ncc(C(F)(F)F)cc2Cl)CC1	inactive	–
OC(CCN1CCOCC1)c1ccccc1 (configuration not stated)	inactive	–
O=C(c1ccco1)N1CCN(c2c([N+](=O)[O-])nn(-c3ccc(Cl)cc3)[n+]2[O-])CC1	inactive	–
CCC(c1nnnn1Cc1ccco1)N1CCN(c2cc(Cl)ccc2C)CC1 (configuration not stated)	inconclusive [activator, single point]	–
N#Cc1ccccc1CSc1nnc(Cc2ccccc2)o1	inconclusive [activator, single point]	–
C=CCNC(=S)NNC(=O)C(CCC(C)C)CC(C)(C)O (configuration not stated)	inconclusive [activator, single point]	–
Cc1[nH]c(C)c(S(=O)(=O)NCCc2ccc(S(N)(=O)=O)cc2)c1C(=O)N1CCCC1	inconclusive [activator, single point]	–
CC1=Nc2ccccc2/C1=C/c1nc(-c2ccc(C)s2)oc1O	inconclusive [activator, full curve, poor fit]	–
CCOC(=O)Cc1csc(Nc2ccc(Cl)cc2)n1	inconclusive [activator, full curve]	–
CC(C)Cn1nc(C(=O)Nc2nnc(C3CC3)s2)c2ccccc2c1=O	inconclusive [activator, partial curve]	–
CC(C)COc1cccc(C(=O)Nc2ccc(N3CCOCC3)cc2N2CCOCC2)c1	inconclusive [activator, single point]	–
COc1ccc2c(c1)C(=O)N1[C@H]3c4cc(Cl)ccc4OC[C@@H]3[C@H](c3ccccc3)[C@]1(C)C(=O)N2	inactive	–
Cc1ccc(NC(=S)N/N=C/c2c(C)[nH]c3ccccc23)cc1	inconclusive [activator, single point]	–
Cn1nccc1-c1coc2c(C(=O)NCc3ccccc3)cccc12	active: 3.55 µM	–
CCc1nnc(NC(=O)CCCSc2nc3ccccc3[nH]2)s1	inconclusive [activator, single point]	–
O=C(COC(=O)/C=C/c1cccc(Br)c1)NC1CC1	inconclusive [activator, full curve]	–
CNC(=O)c1csc(Cc2c(Cl)sc3ccc(Cl)cc23)n1	active: 20 µM	–
O=C(CSc1ccc(Cl)cc1)NC1CCCc2ccccc21 (configuration not stated)	inconclusive [activator, partial curve]	–
O=C(NCCc1ccc(Cl)cc1)c1ccc2nc(CCc3ccccc3)oc2c1	inactive	–
CCCc1n[nH]c(=S)n1Cc1ccco1	inactive	–
CC1(C)CC(=O)C=C(c2ccc(COC(=O)/C=C/c3ccccc3)cc2)C1=O	inconclusive [activator, partial curve]	–
CN(CC(=O)Nc1ccccc1Br)C(=O)c1ccccc1OCc1ccc(Cl)cc1	inconclusive [activator, single point]	–
O=C(COC(=O)C1CCN(c2ccc(C(F)(F)F)cn2)CC1)NCc1ccccc1	active: 22.4 µM	–
O=C(Nc1nc2ccc(F)cc2s1)c1cccc(S(=O)(=O)N2CCc3ccccc32)c1	inactive	–

Reference: PubChem BioAssay AID652104 (National Center for Advancing Translational Sciences (NCATS), 2013)
